According to PubChem BioAssay AID686979 (National Center for Advancing Translational Sciences (NCATS), 2013):
About 50,000 (12%) of roughly 420,000 compounds were called active. This list was built around the results that the source calls inconclusive (neither active nor inactive); the mix of calls is not that of the screen. Calls follow the shape of the dose curve; as a rule, active = well fitted inhibition curve with a large enough effect; inconclusive = small, poorly fitted or top-dose-only effect; inactive = flat fitted curve, though single readings scatter. Potencies of inconclusive entries are left out as doubtful fits.

Test: qHTS for Inhibitors of human tyrosyl-DNA phosphodiesterase 1 (TDP1): qHTS in cells in presence of CPT; also: nearly all actives have a fitted effect of over 55% in size
Details: chicken DT40 Tdp1-/-;hTDP1 cells + 20 nM CPT, ATP luminescence, 48 h; activity change, negative = growth inhibition: at 46.2 µM (top of the series) unless noted
Summary of the method: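 Cell growth measured by CellTiter-Glo luminescence after a minimum 48 h, 37 C compound exposure with 20 nM CPT in Tdp1-knockout DT40 cells stably expressing hTDP1, seeded 400/well; qHTS titration format.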
% is scaled to controls: 0 for no effect and ±100 for the full control effect; potency is read from the fitted curve at half-maximal effect; tags tell the direction and shape of the fitted curve.

Structure (SMILES)	Potency	activity change, negative = growth inhibition
c1ccc(CNCCNCc2ccccc2)cc1	inactive	
COc1cc(NC(=O)c2ccccc2[N+](=O)[O-])ccc1NC(=O)c1cc2ccccc2o1	active: 16.4 µM	
CS(=O)(=O)N1CCc2cc(C(=O)Nc3ccc(COCC(F)(F)F)cc3)ccc21	active: 18.4 µM	
COc1ccc2[nH]c(C(=O)c3ccccc3)cc2c1	active: 0.133 µM	
O=C(C1CC(=O)N(c2ccccc2)C1)N1CCN(c2ccc(F)cc2)CC1 (stereo not drawn)	inactive	
CC(C)(C)N1C(=O)[C@H]2[C@@H](c3ccc(Br)cc3)N3C(=O)N(c4ccc(Br)cc4)C(=O)[C@@]3(Cc3ccccc3)[C@H]2C1=O	active: 20.6 µM	
O=C(CN1CCN(S(=O)(=O)c2ccc3ccccc3c2)CC1)NC(=O)NC1CCCCC1	inactive	
Cc1cc(C)nc(NC(=S)Nc2cccc(Cl)c2Cl)c1	inactive	
Cc1cc2oc(C(=O)Nc3cccnc3)c(C)c2cc1C	inactive	
CCC1(C(=O)c2ccc(Cl)cc2)C2c3ccccc3OC(=O)C21C(=O)Nc1ccccc1 (stereo not drawn)	inactive	
Cc1ccc(S(=O)(=O)N2CCC(C(=O)Nc3ccncc3)CC2)cc1	inconclusive [inhibitor, single point]	
CN(C)c1ccc(NC(=O)CSC2=Nc3ccccc3C3=NC(CC(=O)NCc4ccc5c(c4)OCO5)C(=O)N23)cc1 (stereo not drawn)	inconclusive [inhibitor, single point]	
CCN(Cc1ccc(OC)c(F)c1)C(=O)c1oc2ccccc2c1COC	inconclusive [inhibitor, single point]	
Cc1ccc(S(=O)(=O)N(C)Cc2ccccc2)cc1C(=O)N1CCCCC1	active: 14.6 µM	
O=C(O)c1ccc(NC(=O)c2cn(-c3ccccc3)nc2-c2ccccc2)cc1	inconclusive [inhibitor, single point]	
Cc1cccc(-n2ncc(C(=O)Nc3ccc4c(c3)OCO4)c2C2CCN(C(=O)OC(C)(C)C)CC2)c1	active: 18.4 µM	
Cc1ccc(CSc2nc3[nH]ncc3c(=O)[nH]2)cc1	inconclusive [inhibitor, partial curve]	
O=Cc1ccccc1OCCOc1ccc([N+](=O)[O-])cc1	inconclusive [inhibitor, single point]	
CN(C)S(=O)(=O)c1ccc(N2CCCC2)c(C(=O)Nc2nc3ccc(F)cc3s2)c1	inactive	
COc1cccc(NC(=O)C2Cc3ccccc3CN2C(=O)c2ccco2)c1 (stereo not drawn)	inconclusive [inhibitor, single point]	
CCc1ccc(/C=C2\Oc3cc(OS(C)(=O)=O)ccc3C2=O)cc1	inconclusive [inhibitor, single point]	
Cc1ccc(C(=O)OCn2ncc(Cl)c(Cl)c2=O)cc1	active: 1.84 µM	
COc1ccc2c(c1)CCCN2S(=O)(=O)c1ccc(Cl)cc1	active: 23.1 µM	
CCCC(O)(CCC)C(=O)NN1CCCCC1	active: 23.1 µM	

Structure (SMILES)	Potency	activity change, negative = growth inhibition
COc1ccc(C(=O)NCc2nnc(SCC(=O)Nc3ccc(F)cc3)n2-c2ccccc2)cc1	inconclusive [inhibitor, single point]	
COn1c(=O)c(-c2ccc(F)cc2)[n+]([O-])c2ccccc21	inactive	
O=C(O)C1CSC(c2ccccc2Cl)N1C(=O)c1ccc(Cl)cc1 (stereo not drawn)	inactive	
CC1CN(C(=O)CCc2cc(C(C)(C)C)c(O)c(C(C)(C)C)c2)CC(C)O1 (stereo not drawn)	inconclusive [inhibitor, single point]	
CCOC(=O)c1oc2ccccc2c1NC(=O)c1cccc(OC)c1	active: 13 µM	
COc1ccc(OC)c(NC(=O)Nc2cccnc2)c1	inactive	
O=C(CSc1nnc(C2CC2)n1Cc1ccccc1)c1cc2ccccc2o1	inconclusive [inhibitor, single point]	
CC(C)C(=O)c1cc2c(cc1NC(=O)c1ccccc1F)OCCO2	inconclusive [inhibitor, single point]	
CCOc1ccc(/C=N/Nc2cc(C)nc(N3CCOCC3)n2)cc1	inconclusive [inhibitor, single point]	
Cc1cc(Nc2ccc(Cl)cc2)n2cnnc2n1	inactive	
Cc1cc2ccccn2c1C(=O)c1ccccc1Br	active: 16.4 µM	
Cc1cc(NC(=O)c2cccc(F)c2)ncc1NC(=O)c1ccco1	inconclusive [inhibitor, partial curve]	
CC(=O)N1CCc2cc(S(=O)(=O)CCC(=O)N3CCN(c4ccccc4F)CC3)ccc21	inconclusive [inhibitor, partial curve]	
O=C(Nc1ccc(F)cc1)OCCN1CCN(Cc2ccccc2)CCC1=O	inconclusive [inhibitor, single point]	
COc1ccccc1C(=O)Nc1cccc(S(=O)(=O)N2CCCC2)c1	inconclusive [inhibitor, single point]	
CCCCn1c(OC(=S)N(CC)CC)cc(C)nc1=S	inconclusive [inhibitor, single point]	
Cc1ccccc1-c1noc(-c2cc(C(C)C)[nH]n2)n1	inconclusive [inhibitor, single point]	
Cc1ccc2[nH]c(=O)c(CN(CC3COCCO3)C(=O)Nc3ccccc3F)cc2c1 (stereo not drawn)		inconclusive: -32.1% [inhibitor]
O=C(CSc1nc(=O)n(CCN2CCOCC2)c2c1CCCC2)Nc1cccc([N+](=O)[O-])c1	inconclusive [inhibitor, single point]	
CC(Nc1cccc(C(=O)NC2CC2)c1)c1nnc(-c2ccccc2)o1 (stereo not drawn)	inactive	
COc1ccc(C(=O)Nc2nc(-c3ccc([N+](=O)[O-])cc3)c(-c3ccccc3)s2)cc1	active: 8.2 µM	
COc1cccc(-c2nc(NCCN3CCOCC3)c3ccccc3n2)c1	inconclusive [inhibitor, single point]	
C=CCOc1cccc(NC(=O)c2ccccc2SC)c1	inconclusive [inhibitor, single point]	
CCOc1ccc(NC(=O)CSc2nnc(Cc3cccn3C)n2-c2ccc(F)cc2)cc1	inconclusive [inhibitor, single point]	
